According to the supplement of paper PMC8047034:
Where a name gives a salt, the structure may show the parent alone. This is one part of the list. Single values are uncertain, as repeats are few or missing.

Test system: OVCAR4
Assay: log2 surviving fraction (library drug vs vehicle, or drug + carboplatin vs carboplatin alone; relative to plate median); ovarian cancer lines: OVCAR4 is platinum-sensitive and Ov4Carbo platinum-resistant; higher = more cell survival
Conditions: library drug concentration 10 µM; 7 days; carboplatin co-treatment 5 µM

Q: For `C=CCN1CC[C@]23c4c5ccc(O)c4O[C@H]2C(=O)CC[C@@]3(O)[C@H]1C5` [Naloxone HCl], which log2 surviving fraction is on record?
A: 0.86

Q: For `C[C@@H]1O[C@@H](O[C@H]2C[C@@H](O)[C@]3(CO)[C@H]4[C@H](O)C[C@]5(C)[C@@H](C6=CC(=O)OC6)CC[C@]5(O)[C@@H]4CC[C@]3(O)C2)[C@H](O)[C@H](O)[C@H]1O` [Ouabain], which log2 surviving fraction is on record?
A: -6.88

Q: With `NC(=O)N1c2ccccc2C=Cc2ccccc21` [Carbamazepine (Carbatrol)] as the molecule, how does the log2 surviving fraction read?
A: 0.384

Q: For `CCCN(CCC)CCc1cccc2c1CC(=O)N2` [Ropinirole HCl], which log2 surviving fraction is on record?
A: 0.151

Q: Which log2 surviving fraction does the source give for `C[C@]12C=CC(=O)C=C1CC[C@H]1[C@@H]3C[C@@H](O)[C@](O)(C(=O)CO)[C@@]3(C)C[C@H](O)[C@@]12F` [Triamcinolone (Aristocort)] here?
A: -0.877

Q: For `CCN(Cc1ccncc1)C(=O)C(CO)c1ccccc1` (configuration not stated) [Tropicamide], which log2 surviving fraction is on record?
A: 1.48

Q: With `CC(C)C(=O)Oc1ccc(CO)cc1[C@H](CCN(C(C)C)C(C)C)c1ccccc1` [Fesoterodine fumarate (Toviaz)] as the molecule, how does the log2 surviving fraction read?
A: 0.655

Q: How did the log2 surviving fraction turn out when `CC(=O)O[C@]1(C(C)=O)CC[C@H]2[C@@H]3C[C@H](C)C4=CC(=O)C=C[C@]4(C)[C@@]3(F)[C@@H](O)C[C@@]21C` [Fluorometholone Acetate] was run?
A: 0.794

Q: `COC(=O)C1=CCCN(C)C1` [Arecoline] was tested. Which log2 surviving fraction did it give?
A: -0.0814

Q: How did the log2 surviving fraction turn out when `c1ccc2[nH]c(-c3cscn3)nc2c1` [Thiabendazole] was run?
A: 0.393

Q: How did the log2 surviving fraction turn out when `CCN(CC)CCOC(=O)c1ccc(N)cc1` [Procaine (Novocaine) HCl] was run?
A: 0.313

Q: `COC(=O)C1=C(C)NC(C)=C(C(=O)OCCN(C)Cc2ccccc2)C1c1cccc([N+](=O)[O-])c1` (configuration not stated) [Nicardipine HCl] was tested. Which log2 surviving fraction did it give?
A: -1.31
